The values below come from a collection of fitness landscapes (doi:10.1126/science.1257360).

This is one part of the list.

Sequences and labels used below:
B1: PhoQ; a variant is named by its letters at X, in order, P23837 (parent)
chain: MKKLLRLFFPLSLRVRFLLATAAVVLVLSLAYGMVALIGYSVSFDKTTFRLLRGESNLFYTLAKWENNKLHVELPENIDKQSPTMTLIYDENGQLLWAQRDVPWLMKMIQPDWLKSNGFHEIEADVNDTSLLLSGDHSIQQQLQEVREDDDDAEMTHSVAVNVYPATSRMPKLTIVVVDTIPVELKSSYMVWSWFIYVLSANLLLVIPLLWVAAWWSLRPIEALAKEVRELEEHNRELLNPATTRELTSLVRNLNRLLKSERERYDKYRTTLTDLTHSLKTPLXXLQXXLRSLRSEKMSVSDAEPVMLEQISRISQQIGYYLHRASMRGGTLLSRELHPVAPLLDNLTSALNKVYQRKGVNISLDISPEISFVGEQNDFVEVMGNVLDNACKYCLEFVEISARQTDEHLYIVVEDDGPGIPLSKREVIFDRGQRVDTLRPGQGVGLAVAREITEQYEGKIVAGESMLGGARMEVIFGRQHSAPKDE

The variants in this test derive from B1. Kind of test: enrichment ratio after two sorts for PhoP signalling (ratio (wild type AVST 3.29)); higher = more functional. Conditions: with PhoP (E. coli).
For the variant HEEL, the enrichment ratio is at most 0.25.
SEGE: the enrichment ratio is at most 0.25.
The same measure for QRFE: at most 0.25; for GQPA: at most 0.25.
The value for DPTQ was at most 0.25.
Take MRCR: the enrichment ratio is at most 0.25.
The value for DFCH was at most 0.25; that for HTDF was at most 0.25.
The value for SLHA was at most 0.25.
The same measure for THNW: at most 0.25; for SARS: at most 0.25.
For the variant QQVY, the enrichment ratio is at most 0.25.
On to QLTM, for which the enrichment ratio is at most 0.25.
Consider VLHT, for which the enrichment ratio was at most 0.25.
The value for MNPW was at most 0.25; that for GMRV was at most 0.25; that for IYEL was at most 0.25.
The same measure for AGQM: 15.8.
The same measure for YYFV: at most 0.25.
Take SGKV: the enrichment ratio was at most 0.25.
For the variant MKWS, the enrichment ratio was at most 0.25.
The value for IEVP was at most 0.25; that for FEWE was at most 0.25; that for QIYC was at most 0.25.
The value for WATG was at most 0.25; that for STEI was at most 0.25; that for HSYI was at most 0.25.
The value for DNFF was at most 0.25.
In the case of QKIC, the enrichment ratio is at most 0.25.
The same measure for FGAM: at most 0.25; for GKPV: at most 0.25; for RHLN: at most 0.25.
With WCFC, the enrichment ratio was at most 0.25.
The value for QWYS was at most 0.25.
The value for KQKG was at most 0.25.
The value for KINM was at most 0.25.
For MIII, the enrichment ratio was at most 0.25.
The same measure for QVSS: 2.17; for PHLE: at most 0.25; for TIGD: 11.6.
The same measure for WFNN: at most 0.25; for VADP: at most 0.25.
As for VWAG, the enrichment ratio is at most 0.25.
The same measure for DDNR: at most 0.25.
The value for NTIV was at most 0.25; that for WGQY was at most 0.25.
As to TAYM, the enrichment ratio is 1.39.
With VEWC, the enrichment ratio amounted to 3.2.
The value for QKNL was at most 0.25.
Consider KEPS, for which the enrichment ratio was at most 0.25.
The value for IATC was at most 0.25; that for NNKE was at most 0.25.
The value for QGFE was at most 0.25; that for HVAS was at most 0.25.
The same measure for IRQC: at most 0.25; for HHKA: at most 0.25; for ERHK: at most 0.25.
In the case of TIYD, the enrichment ratio was found to be 1.06.
The value for FDKS was at most 0.25; that for SFIS was at most 0.25.
As to ILCV, the enrichment ratio was at most 0.25.
Take EIWK: the enrichment ratio is at most 0.25.
The value for YFML was at most 0.25.
As to ILFN, the enrichment ratio is at most 0.25.
The same measure for GDGT: at most 0.25; for TDRD: at most 0.25; for IPYL: at most 0.25.
Consider SDDG, for which the enrichment ratio was at most 0.25.
The value for VYYL was at most 0.25; that for NPCK was at most 0.25.
The value for NYFC was at most 0.25; that for FGEF was at most 0.25.
RYDK: the enrichment ratio was at most 0.25.
The value for IDAY was at most 0.25; that for SVKF was at most 0.25.
The value for SSIF was 4.39.
DQPC: the enrichment ratio is at most 0.25.
The same measure for RSTN: at most 0.25.
The same measure for CLYP: at most 0.25; for ILYC: at most 0.25; for IYYK: at most 0.25.
The same measure for DKLE: at most 0.25; for PIVH: at most 0.25; for GHWL: at most 0.25.
Regarding PVTQ, the enrichment ratio was at most 0.25.
The value for DSLW was at most 0.25; that for QIPA was at most 0.25; that for LQCD was at most 0.25.
The same measure for ADEW: at most 0.25.
The same measure for TLNG: 3.64; for EHSC: at most 0.25; for NIGR: at most 0.25.
As to VMCM, the enrichment ratio is at most 0.25.
The same measure for LTSY: at most 0.25; for LWEG: at most 0.25.
The same measure for PSKQ: at most 0.25; for GHFM: at most 0.25.
Regarding QVDM, the enrichment ratio came out at 2.81.
In the case of KPMN, the enrichment ratio is at most 0.25.
Regarding NMDI, the enrichment ratio was at most 0.25.
The value for HAPV was at most 0.25; that for NLIR was 0.571; that for PRTL was at most 0.25.
The same measure for DNCR: at most 0.25; for HQRW: at most 0.25.
The value for MYGY was at most 0.25; that for ELLR was 0.33; that for APRC was at most 0.25.
Turning to ILNH, the enrichment ratio was at most 0.25.
The value for PKVT was at most 0.25; that for SIMA was 4.54.
The value for IKVI was 2.58; that for GGHG was at most 0.25.
The value for KHES was at most 0.25; that for VQKA was at most 0.25; that for DLQV was at most 0.25.
PVQW: the enrichment ratio was at most 0.25.
The same measure for TMVR: at most 0.25; for RRHV: at most 0.25.
The value for PENF was at most 0.25; that for YFNY was at most 0.25.
The same measure for YDML: at most 0.25.
For GMWV, the enrichment ratio was at most 0.25.
The same measure for IREQ: at most 0.25; for RVCQ: at most 0.25.
Consider ELGG, for which the enrichment ratio is at most 0.25.
Take QTII: the enrichment ratio is at most 0.25.
The value for SRNK was at most 0.25.
The value for LNRA was at most 0.25.
Take HPFD: the enrichment ratio is at most 0.25.
The same measure for HSHN: at most 0.25; for HPYK: at most 0.25; for NKRN: at most 0.25.
The value for SCNE was at most 0.25; that for YNQM was 0.38.
The same measure for HNQL: at most 0.25; for YNQC: at most 0.25.
On to WLVH, for which the enrichment ratio is at most 0.25.
The same measure for ARPE: at most 0.25; for VMPT: at most 0.25; for GERK: at most 0.25.
The same measure for YHHR: at most 0.25; for TDAW: at most 0.25.
In the case of LIKP, the enrichment ratio was at most 0.25.
As for YGMI, the enrichment ratio was found to be 2.77.
The value for EQGR was at most 0.25; that for NHTR was at most 0.25; that for IPDP was at most 0.25.
As to AKVG, the enrichment ratio is at most 0.25.
The same measure for SVNC: 3.7; for QPGL: at most 0.25; for NIGA: at most 0.25.
The value for KSKW was at most 0.25.
